Experimental data taken from the supplement of paper PMC4604168 (melanoma cell lines).
The other results are listed elsewhere or left out. Many values rest on one well or one pass, so single values are uncertain.

Tested on: WM3619
Assay: cell count relative to DMSO control; melanoma cells; higher = more viable cells
Conditions: library dose: low library concentration; 72 h
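Also: cell number obtained by counting DAPI-stained nuclei in high-throughput microscope images with image analysis software, screen run in 1,536-well plates.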

| SMILES | cell count |
| --- | --- |
| CN(C)S(=O)(=O)c1ccc2c(c1)/C(=C/c1cc3c([nH]1)CCCC3)C(=O)N2 + CC(C)CCN1c2nc(Nc3cc(F)c(O)c(F)c3)ncc2N(C)C(=O)C1C [BID1870] (first compound 0.4 µM, partner dose 0.2 µM) | 119% |
| C=CCn1c(=O)c2cnc(Nc3ccc(N4CCN(C)CC4)cc3)nc2n1-c1cccc(C(C)(C)O)n1 + CCCCCCCCCCCC1=C(O)C(=O)C=C(O)C1=O [Embelin] (first compound 0.02 µM, partner dose 1.2 µM) | 82% |
| CO[C@@H]1[C@H](N(C)C(=O)c2ccccc2)C[C@H]2O[C@]1(C)n1c3ccccc3c3c4c(c5c6ccccc6n2c5c31)C(=O)NC4 [Midostaurin] + CCN(CC)CCCCNc1ncc2cc(-c3cc(OC)cc(OC)c3)c(NC(=O)NC(C)(C)C)nc2n1 [PD173074] (first compound 0.08 µM, partner dose 0.1 µM) | 126% |
| CO[C@@H]1[C@H](N(C)C(=O)c2ccccc2)C[C@H]2O[C@]1(C)n1c3ccccc3c3c4c(c5c6ccccc6n2c5c31)C(=O)NC4 [Midostaurin] + O=C1NC(=O)/C(=C/c2ccc(-c3ccc(F)cc3O)o2)S1 [AS252424] (first compound 0.08 µM, partner dose 1 µM) | 91.2% |
| OCCn1cc(-c2cnc3nnn(Cc4ccc5ncccc5c4)c3n2)cn1 + CCc1ccc(CCOc2ccc(CC3SC(=O)NC3=O)cc2)nc1 [pioglitazone] (first compound 1 µM, partner dose 2 µM) | 102% |
| C[C@]1(c2nc3c(C(N)=O)cccc3[nH]2)CCCN1 [Veliparib] + CC1(C)NC(=O)N(c2ccc([N+](=O)[O-])c(C(F)(F)F)c2)C1=O [nilutamide] (first compound 1.4 µM, partner dose 1 µM) | 97.9% |
| Cc1nc(Nc2ncc(C(=O)Nc3c(C)cccc3Cl)s2)cc(N2CCN(CCO)CC2)n1 [dasatanib] + COc1cc(Nc2ncc(F)c(Nc3ccc4c(n3)NC(=O)C(C)(C)O4)n2)cc(OC)c1OC [Tamatinib] (first compound 0.004 µM, partner dose 0.4 µM) | 95.6% |
| CN(C)S(=O)(=O)c1ccc2c(c1)/C(=C/c1cc3c([nH]1)CCCC3)C(=O)N2 + COC(=O)c1sccc1S(=O)(=O)Nc1ccc(Nc2ccccc2)cc1OC [GSK0660] (first compound 0.4 µM, partner dose 1 µM) | 120% |
| CN(C)S(=O)(=O)c1ccc2c(c1)/C(=C/c1cc3c([nH]1)CCCC3)C(=O)N2 + NCC(=O)Nc1ccc(-n2nc(C(F)(F)F)cc2-c2ccc3c(ccc4ccccc43)c2)cc1 [OSU03012] (first compound 0.4 µM, partner dose 1 µM) | 95.9% |

Tested on: WM451Lu
Assay: as above
Conditions: library dose: low library concentration; 72 h

| SMILES | cell count |
| --- | --- |
| NC(=O)Nc1cc(-c2cccc(F)c2)sc1C(=O)N[C@H]1CCCNC1 + CC(C)CCN1c2nc(Nc3cc(F)c(O)c(F)c3)ncc2N(C)C(=O)C1C [BID1870] (first compound 0.02 µM, partner dose 0.2 µM) | 68.1% |
| CN(C)S(=O)(=O)c1ccc2c(c1)/C(=C/c1cc3c([nH]1)CCCC3)C(=O)N2 + O=C(O)c1ccc(-c2c[nH]c3ncc(-c4ccccc4)cc23)cc1C1CCCC1 [GSK650394] (first compound 0.4 µM, partner dose 0.16 µM) | 87.4% |
| Cc1nc(Nc2ncc(C(=O)Nc3c(C)cccc3Cl)s2)cc(N2CCN(CCO)CC2)n1 [dasatanib] + O=C(Nc1cccc(Cl)c1)Nc1ncc(CCNc2ncnc3ccsc23)s1 [SNS314] (first compound 0.004 µM, partner dose 0.0008 µM) | 70.1% |
| CN(C)S(=O)(=O)c1ccc2c(c1)/C(=C/c1cc3c([nH]1)CCCC3)C(=O)N2 + COc1cc2ncnc(Nc3ccc(Oc4ccccc4)cc3)c2cc1OC [SrcI1] (first compound 0.4 µM, partner dose 2 µM) | 103% |
| C=CCn1c(=O)c2cnc(Nc3ccc(N4CCN(C)CC4)cc3)nc2n1-c1cccc(C(C)(C)O)n1 + N#Cc1c(O)c2c(-c3ccc(-c4ccccc4O)cc3)csc2[nH]c1=O [A769662] (first compound 0.02 µM, partner dose 2 µM) | 118% |
| CN(C)S(=O)(=O)c1ccc2c(c1)/C(=C/c1cc3c([nH]1)CCCC3)C(=O)N2 + Cn1cc(/C=C2\C(=O)Nc3cccnc32)c2ccccc21 [GW441756] (first compound 0.4 µM, partner dose 0.4 µM) | 115% |
| NCC(=O)Nc1ccc(-n2nc(C(F)(F)F)cc2-c2ccc3c(ccc4ccccc43)c2)cc1 + CN(NC(=O)CC(=O)NN(C)C(=S)c1ccccc1)C(=S)c1ccccc1 [STA4783] (first compound 1 µM, partner dose 0.006 µM) | 62.7% |
| OCCn1cc(-c2cnc3nnn(Cc4ccc5ncccc5c4)c3n2)cn1 + COc1ccc(-c2ccc3c(N4CCOCC4)nc(N4C[C@@H](C)O[C@@H](C)C4)nc3n2)cc1CO [KU0063794] (first compound 1 µM, partner dose 0.02 µM) | 62.3% |
| Cc1nc(Nc2ncc(C(=O)Nc3c(C)cccc3Cl)s2)cc(N2CCN(CCO)CC2)n1 [dasatanib] + Cc1ccc(NC(=O)c2cccc(N(C)C)c2)cc1NC(=O)c1ccc(O)cc1 [ZM336372] (first compound 0.004 µM, partner dose 2 µM) | 85.7% |
| CO[C@@H]1[C@H](N(C)C(=O)c2ccccc2)C[C@H]2O[C@]1(C)n1c3ccccc3c3c4c(c5c6ccccc6n2c5c31)C(=O)NC4 [Midostaurin] + CC(C)(C)c1cnc(CSc2cnc(NC(=O)C3CCNCC3)s2)o1 [SNS-032] (first compound 0.08 µM, partner dose 0.01 µM) | 88.8% |
| C[C@]1(c2nc3c(C(N)=O)cccc3[nH]2)CCCN1 [Veliparib] + COc1ccc(-c2ccc3c(N4CCOCC4)nc(N4C[C@@H](C)O[C@@H](C)C4)nc3n2)cc1CO [KU0063794] (first compound 1.4 µM, partner dose 0.02 µM) | 107% |
| C[C@]1(c2nc3c(C(N)=O)cccc3[nH]2)CCCN1 [Veliparib] + NCC(=O)Nc1ccc(-n2nc(C(F)(F)F)cc2-c2ccc3c(ccc4ccccc43)c2)cc1 [OSU03012] (first compound 1.4 µM, partner dose 1 µM) | 66.9% |
| Cc1nc(Nc2ncc(C(=O)Nc3c(C)cccc3Cl)s2)cc(N2CCN(CCO)CC2)n1 [dasatanib] + COc1ccc(-c2ccc3c(N4CCOCC4)nc(N4C[C@@H](C)O[C@@H](C)C4)nc3n2)cc1CO [KU0063794] (first compound 0.004 µM, partner dose 0.02 µM) | 83.1% |
| Cc1nc(Nc2ncc(C(=O)Nc3c(C)cccc3Cl)s2)cc(N2CCN(CCO)CC2)n1 [dasatanib] + O=S(=O)(c1ccccc1)N(CC(F)(F)F)c1ccc(C(O)(C(F)(F)F)C(F)(F)F)cc1 [T0901317] (first compound 0.004 µM, partner dose 1.4 µM) | 83% |
| NC(=O)Nc1cc(-c2cccc(F)c2)sc1C(=O)N[C@H]1CCCNC1 + COc1ccc(COc2ccc(Cc3cnc(N)nc3N)cc2OC)cc1 [GW2580] (first compound 0.02 µM, partner dose 1 µM) | 96.3% |
| NC(=O)Nc1cc(-c2cccc(F)c2)sc1C(=O)N[C@H]1CCCNC1 + O=C(Nc1ccccc1)c1cc([N+](=O)[O-])ccc1Cl [GW9662] (first compound 0.02 µM, partner dose 2 µM) | 72.4% |
| C[C@]1(c2nc3c(C(N)=O)cccc3[nH]2)CCCN1 [Veliparib] + CCc1ccc(CCOc2ccc(CC3SC(=O)NC3=O)cc2)nc1 [pioglitazone] (first compound 1.4 µM, partner dose 2 µM) | 106% |
| OCCn1cc(-c2cnc3nnn(Cc4ccc5ncccc5c4)c3n2)cn1 + COc1ccc2c(c1)CCC1C2CCC2(C)C(NCCCCCCN3C(=O)C=CC3=O)CCC12 [U73122] (first compound 1 µM, partner dose 0.4 µM) | 86.1% |
| Cc1nc(Nc2ncc(C(=O)Nc3c(C)cccc3Cl)s2)cc(N2CCN(CCO)CC2)n1 [dasatanib] + O=C(O)C(=O)Nc1sc2c(c1C(=O)O)CCNC2 [TCS401] (first compound 0.004 µM, partner dose 1.66667 µM) | 83.2% |
| NCC(=O)Nc1ccc(-n2nc(C(F)(F)F)cc2-c2ccc3c(ccc4ccccc43)c2)cc1 + O=C1NC(=O)/C(=C/c2ccc(-c3ccc(F)cc3O)o2)S1 [AS252424] (first compound 1 µM, partner dose 1 µM) | 64.9% |
| CO[C@@H]1[C@H](N(C)C(=O)c2ccccc2)C[C@H]2O[C@]1(C)n1c3ccccc3c3c4c(c5c6ccccc6n2c5c31)C(=O)NC4 [Midostaurin] + CN(C)S(=O)(=O)c1ccc2c(c1)/C(=C/c1cc3c([nH]1)CCCC3)C(=O)N2 [SU6656] (first compound 0.08 µM, partner dose 0.4 µM) | 110% |
| C[C@]1(c2nc3c(C(N)=O)cccc3[nH]2)CCCN1 [Veliparib] + O=C(O)C(=O)Nc1sc2c(c1C(=O)O)CCNC2 [TCS401] (first compound 1.4 µM, partner dose 1.66667 µM) | 125% |
| CO[C@@H]1[C@H](N(C)C(=O)c2ccccc2)C[C@H]2O[C@]1(C)n1c3ccccc3c3c4c(c5c6ccccc6n2c5c31)C(=O)NC4 [Midostaurin] + COc1cc2ncnc(Nc3ccc(Oc4ccccc4)cc3)c2cc1OC [SrcI1] (first compound 0.08 µM, partner dose 2 µM) | 99.6% |
